Measurements taken from PubChem BioAssay AID504332 (National Center for Advancing Translational Sciences (NCATS), 2011).
The whole screen tested about 350,000 compounds, of which about 31,000 (8.9%) were called active. The shares of active, inactive and inconclusive entries below differ from those in the screen. Calls follow the shape of the dose curve; as a rule, active = well fitted inhibition curve with a large enough effect; inconclusive = small, poorly fitted or top-dose-only effect; inactive = no such curve, though single readings can be large or run the other way. Potencies beside an inconclusive call are fits to weak or partial responses and may not hold up.

Target: Histone-lysine N-methyltransferase EHMT2 (Homo sapiens) (UniProt Q96KQ7)
Sequence of UniProt Q96KQ7 (Q96KQ7 whole entry, looked up): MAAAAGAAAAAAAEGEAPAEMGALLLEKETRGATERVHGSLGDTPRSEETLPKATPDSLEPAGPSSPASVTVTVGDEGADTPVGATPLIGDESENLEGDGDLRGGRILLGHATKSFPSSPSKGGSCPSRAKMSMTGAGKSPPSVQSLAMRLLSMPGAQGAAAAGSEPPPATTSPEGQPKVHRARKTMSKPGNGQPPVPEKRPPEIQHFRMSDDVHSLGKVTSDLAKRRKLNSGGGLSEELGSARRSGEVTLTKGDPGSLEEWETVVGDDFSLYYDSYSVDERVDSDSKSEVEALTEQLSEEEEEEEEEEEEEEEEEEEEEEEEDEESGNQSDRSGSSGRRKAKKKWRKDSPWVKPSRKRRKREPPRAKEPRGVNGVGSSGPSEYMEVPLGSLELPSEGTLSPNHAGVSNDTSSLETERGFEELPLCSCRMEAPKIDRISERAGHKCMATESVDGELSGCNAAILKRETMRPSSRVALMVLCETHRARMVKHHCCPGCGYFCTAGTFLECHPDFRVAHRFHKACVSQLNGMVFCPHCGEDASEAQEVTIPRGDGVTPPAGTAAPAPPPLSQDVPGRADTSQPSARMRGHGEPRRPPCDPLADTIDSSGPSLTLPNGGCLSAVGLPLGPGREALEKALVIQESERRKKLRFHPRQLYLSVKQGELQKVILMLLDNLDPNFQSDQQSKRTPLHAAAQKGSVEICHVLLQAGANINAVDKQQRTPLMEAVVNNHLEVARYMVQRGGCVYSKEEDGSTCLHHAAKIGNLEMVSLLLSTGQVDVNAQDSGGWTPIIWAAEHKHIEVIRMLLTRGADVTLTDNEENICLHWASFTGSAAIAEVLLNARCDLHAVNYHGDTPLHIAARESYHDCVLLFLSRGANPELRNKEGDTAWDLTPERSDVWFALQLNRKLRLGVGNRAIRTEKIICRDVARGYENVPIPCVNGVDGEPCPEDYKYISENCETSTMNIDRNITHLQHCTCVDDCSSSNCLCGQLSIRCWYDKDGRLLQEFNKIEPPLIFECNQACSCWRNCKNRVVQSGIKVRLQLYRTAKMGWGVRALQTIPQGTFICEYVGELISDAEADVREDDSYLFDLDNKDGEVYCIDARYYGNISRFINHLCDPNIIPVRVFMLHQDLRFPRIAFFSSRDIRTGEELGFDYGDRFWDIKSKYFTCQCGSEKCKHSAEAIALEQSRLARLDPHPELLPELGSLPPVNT
Assay: qHTS Assay for Inhibitors of Histone Lysine Methyltransferase G9a; also: nearly all actives have a fitted effect of over 75% in size
Details: G9a H3K9 monomethylation, AlphaScreen, 2 h; activity, negative = inhibition: at 59 µM (top of the series) unless noted
Outline: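 Quantitative HTS format: methyltransferase activity on a biotin-tagged H3K9 peptide is measured by AlphaScreen, using a rabbit anti-monomethyl-H3K9 antibody with streptavidin donor and anti-IgG acceptor beads. Final levels are 20 nM enzyme, 500 nM peptide, 20 uM SAM; 2 h RT.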
% is scaled to controls: 0 for no effect and ±100 for the full control effect; potency is read from the fitted curve at half-maximal effect; tags tell the direction and shape of the fitted curve.

SMILES | Potency | activity, negative = inhibition
COc1ccc(CN2CCCC(C(=O)N(C)Cc3ccccc3)C2)cc1OC (stereo not drawn) | active: 10 µM | 
O=C(N/N=C/c1ccc(Br)s1)c1cccc([N+](=O)[O-])c1 | inconclusive: 89.1 µM [inhibitor, single point] | 
O=S(=O)(Nc1cccc(-c2ccc(N3CCCCC3)nn2)c1)c1cccs1 | inconclusive: 22.4 µM [inhibitor, partial curve, poor fit] | 
CCOc1nc(-c2ccc(OC)cc2)ccc1-c1noc(C)n1 | inconclusive: 0.708 µM [inhibitor, full curve, poor fit] | 
O=C(COC(=O)C1CCC1)Nc1cc(S(=O)(=O)N2CCCCC2)ccc1Cl |  | inconclusive: -64.3% [inhibitor] [at 2.33 µM]
COc1ccc(Cl)cc1N1C(=O)C2CCCN2C1c1ccc(F)cc1 (stereo not drawn) | inconclusive: 100 µM [inhibitor, single point] | 
Oc1ccc(N=Nc2nc(-c3ccccc3)c(-c3ccccc3)[nH]2)cc1 | active: 20 µM | 
Cc1ccc(-n2c(CSc3nc(C)cc(C)n3)n[nH]c2=S)cc1 | active: 3.98 µM | 
COc1cc2c(cc1OC)-c1n[nH]c(=S)n1C(C)(C)C2 | active: 3.98 µM | 
C#CCOCCOCCOCCNc1nc(N2CCN(C(=O)Cn3cc(CCCCN)nn3)CC2)nc(N2CCN(C(=O)[C@H]([C@@H](C)CC)n3cc(CCCCN)nn3)CC2)n1 |  | inactive: -15.4% [at 2.33 µM]
CC(=O)c1cccc(NC(=O)CCS(=O)(=O)c2cc(Br)cc3c2N(C(=O)C2CC2)CC3)c1 | inactive | 
Cc1ccc(C2CC(=O)C=C(NCc3ccccc3)C2)cc1 (stereo not drawn) | inactive | 
O=C(Cc1ccccc1)NCC(=O)OCc1ccc([N+](=O)[O-])cc1 | inconclusive: 1.41 µM [inhibitor, full curve] | 
O=C(CN(Cc1ccccc1)S(=O)(=O)c1ccccc1)N/N=C/c1ccc([N+](=O)[O-])cc1 | inconclusive: 11.2 µM [inhibitor, partial curve, poor fit] | 
O=C(Nc1ccccc1Oc1ccccc1)c1cc([N+](=O)[O-])ccc1Cl | inconclusive: 28.2 µM [inhibitor, single point] | 
CCOC(=O)c1c(NC(=O)c2ccoc2C)sc(C(=O)N(C)C)c1C | active: 31.6 µM | 
COc1ccccc1N(Cc1ccccc1)S(=O)(=O)c1cccc(C(=O)NCC2CCCO2)c1 (stereo not drawn) | inconclusive: 1.58 µM [inhibitor, partial curve, poor fit] | 
C#CCNC(=O)C1=C[C@H](c2ccc3c(c2)OCO3)C[C@H](OCc2ccc(CO)cc2)O1 |  | inconclusive: -75% [inhibitor]
